# In all, about 110,000 compounds were measured (“z-score”: median about -0.1, highest 2% from about 2 on). Some of the results follow. Calls of active or inactive are those of the source.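 How the source made its calls: active means z-score in the third read window above 3 or below -3; inactive means the rest.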
# Biological target: Metabotropic glutamate receptor 8 (Rattus norvegicus) (UniProt P70579)
# Test: mGluR8 Gi/Go-coupled signaling modulation – cell-based, rat, thallium flux, HTS, primary screen (AID 488969)
# Conditions: HEK293 rat mGluR8, GIRK (G protein-gated inwardly rectifying potassium channel) thallium flux, FluoZin2; at 10 µM; stronger effect = higher value; submaximal glutamate (EC20) added with thallium
# Chain of UniProt P70579 (P70579 whole entry, looked up): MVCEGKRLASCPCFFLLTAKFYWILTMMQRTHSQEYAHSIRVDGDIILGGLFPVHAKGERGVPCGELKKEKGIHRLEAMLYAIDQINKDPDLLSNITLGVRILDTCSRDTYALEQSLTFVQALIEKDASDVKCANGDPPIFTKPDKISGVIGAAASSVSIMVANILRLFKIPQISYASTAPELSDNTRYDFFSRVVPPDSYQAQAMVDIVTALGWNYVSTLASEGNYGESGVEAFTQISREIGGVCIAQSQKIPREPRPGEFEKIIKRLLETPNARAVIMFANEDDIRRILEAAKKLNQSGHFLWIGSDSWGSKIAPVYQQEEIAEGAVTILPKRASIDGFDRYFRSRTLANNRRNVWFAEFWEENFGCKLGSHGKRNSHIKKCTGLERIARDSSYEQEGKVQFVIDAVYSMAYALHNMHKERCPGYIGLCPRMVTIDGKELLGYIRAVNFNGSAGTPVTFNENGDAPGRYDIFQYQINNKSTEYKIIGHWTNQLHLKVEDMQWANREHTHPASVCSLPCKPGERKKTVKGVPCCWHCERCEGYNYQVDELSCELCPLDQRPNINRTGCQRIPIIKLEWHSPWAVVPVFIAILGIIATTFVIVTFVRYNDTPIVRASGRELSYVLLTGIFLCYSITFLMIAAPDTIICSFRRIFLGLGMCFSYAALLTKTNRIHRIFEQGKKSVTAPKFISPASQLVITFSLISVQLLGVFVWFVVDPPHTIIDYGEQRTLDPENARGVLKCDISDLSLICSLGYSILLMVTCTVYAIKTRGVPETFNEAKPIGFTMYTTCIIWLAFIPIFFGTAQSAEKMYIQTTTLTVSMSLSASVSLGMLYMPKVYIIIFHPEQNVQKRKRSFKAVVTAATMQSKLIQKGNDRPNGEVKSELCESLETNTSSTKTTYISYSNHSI
row,SMILES,z-score
1,O=C(CN1CCN(S(=O)(=O)c2ccc(Cl)cc2)CC1)NC(=O)NC1CCCCC1,-0.219
2,Cc1sc2ncnc(NCCc3ccc(S(N)(=O)=O)cc3)c2c1C,0.0936
3,c1ccc(CCN2CCN(c3ncnc4c3cnn4-c3ccccc3)CC2)cc1,0.0352
4,O=C(Nc1cccc(O)c1)c1cc2nc(-c3ccccc3)cc(-c3ccccc3)n2n1,-0.00871
5,Cc1cn2c(-c3cccnc3)nnc2s1,0.919
6,CCCCc1nc2c(=O)[nH]c3ccccc3c2o1,-0.274
7,C=CCn1c(-c2ccccc2)nc2nc3ccccc3nc21,-0.144
8,COC(=O)NCCOC(=O)N(O)c1ccc(Br)cc1,-0.151
9,O=C(CSc1nc2ccccc2o1)NCc1ccco1,0.00156
10,C/C(=N\NC(=O)Cc1ccc(Cl)cc1)c1ccccn1,0.312
11,COc1ccc2nc(C)cc(SCC(=O)NNC(=O)COc3ccc(C)cc3)c2c1,-0.000743
12,O=C(Nc1nc2ccccc2n1CCOc1ccccc1)c1ccco1,0.878
13,CC(=O)Nc1nc(-c2cccs2)cs1,-0.281
14,COc1ccc(-c2csc(NC(=O)C3CC(=O)N(c4ccc5c(c4)OCCO5)C3)n2)cc1 (stereo not drawn),-0.0726
15,Cc1ccc(OCCSc2nnc(-c3cccs3)n2C)cc1,-0.185
16,COc1ccc(OC)c(CNC(=O)COc2cc(=O)n(C)c3ccccc23)c1,0.148
17,COc1ccc(/C=N/NC(=O)c2ccc(=O)[nH]n2)cc1OC,-0.178
18,CCC(=O)Nc1ccc(S(=O)(=O)NCCc2ccccc2)cc1,-0.234
19,O=C(CSc1ncccn1)Nc1ccc(N2CCOCC2)cc1,-0.202
20,COc1ccc(CC(=O)NC(C)c2nnc(SCCOc3ccc(OC)cc3)n2C)cc1 (stereo not drawn),-0.475
21,COC(=O)c1cc2sccc2n1Cc1nc(-c2cccc(Cl)c2)oc1C,-0.177
22,O=C(Nc1ccc(NC(=O)C2CC2)cn1)c1ccccc1Cl,0.115
23,COc1ccc(OC)c(Nc2nc(-c3cccc([N+](=O)[O-])c3)nc3ccccc23)c1,-0.0845

row,SMILES,z-score
1,Cc1ccc(NC(=O)c2cc(S(=O)(=O)c3ccccc3)ccc2Cl)cc1,-0.0678
2,O=C(Nc1ccc(S(=O)(=O)NCc2ccco2)cc1)c1ccncc1,0.137
3,Cc1nnc(-c2ccc(Oc3ccc(C)c(C)c3)c([N+](=O)[O-])c2)o1,-1.15
4,COc1ccc(OC)c(C=Nc2ccccc2-c2nc3ccccc3[nH]2)c1,-0.659
5,CCC1CCc2[nH]nc(C(=O)O)c2C1 (stereo not drawn),-1.27
6,C=CCNC(=S)N/N=C(\C)c1ccc(OC)cc1,2.03
7,CCOc1ccc(N(CC(=O)NC(C)(C)C)S(=O)(=O)c2c(C)noc2C)cc1,-0.546
8,Cc1cc(C)cc(NC(=O)CSc2nnc(-c3ccccc3Br)o2)c1,-0.268
9,C=CCSc1nnc(NC(=O)CSc2nc(CCC)cc(=O)[nH]2)s1,-2.18
10,CC(=O)N1c2ccccc2Oc2cc3ccccc3cc21,-0.261
11,Cc1cc(C(C)(C)C)cc(S(=O)(=O)Nc2ccc(O)c(C(=O)O)c2)c1C,-0.214
12,COc1cccc(-c2nc(-c3ccccn3)no2)c1,-0.111
13,O=C(Cn1c(=O)[nH]n(-c2ccccc2)c1=O)N1CCCc2ccccc21,0.648
14,Cc1cccc(NC(=S)NC(C)CCc2ccccc2)c1 (stereo not drawn),0.2
15,CC1CC(C)(C)N(C(=O)CSc2ccc(-c3ccc(F)cc3)nn2)c2ccccc21 (stereo not drawn),-0.024
16,Clc1ccc(CSc2nnc(CNc3cccc(Cl)c3)o2)cc1,-0.666
17,Cn1cccc1C1NC(=O)c2c(sc3c2CCC(C(C)(C)C)C3)N1 (stereo not drawn),0.481
18,COC(=O)C1=C(C(=O)OC)C(c2cc(Cl)ccc2O)c2sc(=O)[nH]c2S1 (stereo not drawn),-0.643
19,CC(C)[C@H](NC(=O)c1ccc(C(C)(C)C)cc1)C(=O)Nc1nnc(C2CC2)s1,-0.921
20,Cc1ccc(NC(=O)CSc2nnnn2C)cc1S(=O)(=O)N(C)C,-0.194
21,Cc1cc(C)n(-c2nncn2/N=C/c2ccccc2F)n1,-0.0531
22,CCN1CCN(C(=O)CSc2cc(=O)n(CC)c3ccccc23)CC1,-0.0483
23,O=c1nc2ccccc2c2n1CC(CN1CCN(Cc3ccccc3)CC1)N2 (stereo not drawn),-0.482

row,SMILES,z-score
1,CCOC(=O)c1cnc(SCCc2ccccc2)nc1N,-0.386
2,Cc1cnc(NC(=O)CSc2nnc(COc3c(C)cccc3C)o2)s1,-0.236
3,CN(CC(=O)OCC(=O)NC(=O)c1cccn1C)S(=O)(=O)c1ccc(Cl)cc1,-0.459
4,CCCCN(CC)c1nc(N)c2c(N)nc(OCC)cc2c1C#N,-0.0208
5,CSc1ccccc1NC(=S)Nc1cccc(C(F)(F)F)c1,0.183
6,COc1ccc(Nc2ncccc2C(=O)NCc2ccccc2)cc1,0.0521
7,COc1ccc(CNc2nc(NCc3ccc(OC)c(OC)c3)n(C(=O)c3cccs3)n2)cc1OC,-1.01
8,COc1cccc(C(=O)Nc2nnc(C3CCCO3)s2)c1 (stereo not drawn),-0.0731
9,COc1ccc(S(=O)(=O)NCCSC(C)(C)C)c(Cl)c1Cl,-0.144
10,COC(=O)CSc1nc(N)nc(C)c1Br,0.0483
11,Cc1ccc(CN(c2ccc(C(=O)NCc3ccccn3)cc2)S(C)(=O)=O)cc1,-0.144
12,CCCCCCCC[n+]1cccc(C(=O)N(CC)CC)c1,-0.179
13,C=CCC(NCc1ccco1)c1ccc(OC)cc1 (stereo not drawn),0.032
14,CCn1ncc(/C=N/NC(=O)c2ccc3c(c2)OCO3)c1C,-0.0337
15,Cc1ccc(C2C(C(=O)O)c3ccccc3C(=O)N2C)o1 (stereo not drawn),-0.116
16,C=CCNC(=O)c1cc(=O)c2ccccc2o1,0.446
17,CCOC(=O)c1sc(NC(=O)c2cc(S(=O)(=O)N3CCOCC3)ccc2C)nc1C,-0.215
18,O=C(/C=C/NNC(=O)c1ccc(Br)cc1)c1ccccc1,0.387
19,Cc1onc(-c2c(Cl)cccc2Cl)c1C(=O)NC(=S)Nc1sc2c(c1C(N)=O)CCC(C)C2 (stereo not drawn),-0.371
20,CCOC(=O)c1c(-c2ccccc2)csc1NC(=O)CSc1nc(N)cc(N)n1,-0.344
21,CCCn1c(Nc2ccccc2C)nc2ccccc21,0.583
22,Cc1ccc(-c2csc3ncnc(Sc4nnc(CN5CCCCCC5=O)o4)c23)cc1,-1.8
23,Cn1ccc(C(=O)N2CCCc3ccccc32)n1,-0.0997

row,SMILES,z-score
1,O=C(NC1(C(F)(F)F)NC(=O)N(c2ccc(F)cc2)C1=O)c1cccs1 (stereo not drawn),-0.139
2,O=C(NC(=S)N1CCCCC1)C12CC3CC(CC(C3)C1)C2,active: 5.6
3,Cc1ccc(C(=O)OCC(=O)N2CC(=O)Nc3ccccc32)s1,0.331
4,O=C(O)c1cnc(-c2ccccc2)nc1Sc1cccc(Cl)c1,-1.1
5,CC(C)(C)n1ncc2c(=O)n(Cc3c(F)cccc3Cl)cnc21,0.171
6,COCc1cc(C)nc(SCC(=O)Nc2cccc(C)c2)c1C#N,-0.237
7,CSc1ccc(-c2nnn(Cc3ccccn3)n2)cc1,-0.621
8,O=C(NC(=S)Nc1ccc(S(=O)(=O)Nc2nccs2)cc1)c1ccc(F)cc1,0.00534
9,Nc1nc(-c2ccc(Br)s2)c(Br)s1,0.515
10,O=C(NC(=S)NCc1ccc(-c2nc3ccccc3s2)cc1)c1ccco1,2.52
11,C/C=C/C(=O)Nc1nnc(C(C)C)s1,0.0319
12,Cc1ccc(-n2c(SCC(N)=O)nnc2-c2ccc(S(=O)(=O)N3CCCCC3)cc2)c(C)c1,-0.621
13,CCOC(=O)N1CCC(NC(=O)c2cc3c(-c4ccccc4F)nn(C)c3s2)CC1,-0.527
14,COc1ccc(-c2c3c(nc4sc(C(=O)Nc5ccccc5)c(N)c24)CCC3)cc1,-0.28
15,C=CCn1c(CSCc2ccc(C)cc2)nnc1SCC(=O)NCc1ccccc1,-0.519
16,CC(=O)NCCCc1nc2ccccc2n1Cc1ccc(C)cc1,-0.0965
17,Cn1cccc1/C=N/NC(=O)c1ccn[nH]1,-0.0257
18,CCOC(=O)c1ccc(N2C(=O)CC(N3CCN(C/C=C/c4ccccc4)CC3)C2=O)cc1 (stereo not drawn),0.337
19,O=C(Cn1cc(C(=O)C2CC2)c2ccccc21)NCc1ccccc1,-1.52
20,O=C1N(Nc2ccccc2)C(c2ccc(Br)cc2)C12CCCCC2 (stereo not drawn),-0.026
21,Cc1ccc(C2CC(C(F)F)n3ncc(C(=O)Nc4c(C)nn(Cc5c(F)cccc5Cl)c4C)c3N2)cc1 (stereo not drawn),0.125
22,O=C(CN(c1cccc([N+](=O)[O-])c1)S(=O)(=O)c1ccccc1)N(Cc1ccccc1)Cc1ccccc1,-0.215
23,CCC(C)NC(=O)CCCc1ccccc1 (stereo not drawn),-0.125

row,SMILES,z-score
1,COc1ccc2c(c1)C(C1C(=O)CCCC1=O)c1ccccc1O2 (stereo not drawn),-0.324
2,CCN(CC)S(=O)(=O)c1cc(NS(=O)(=O)c2ccccc2)ccc1C,0.181
3,CC(=O)Nc1nc(N)n(-c2ccccc2)n1,-1.76
4,O=C(Nc1ccc(F)cc1)NC1CCN(Cc2nnnn2Cc2ccco2)CC1,-0.181
5,O=C1C(=C2CCCCC2)SC(=S)N1Cc1ccco1,0.0279
6,CN(C)c1ccc(C(=O)Nc2ccc(S(=O)(=O)NC3=NCCCCC3)cc2)cc1,0.279
7,Cc1cc(N2CCN(c3cccc(C)c3C)CC2)nc(-c2ccccc2)n1,-0.272
8,COc1cccc(Cn2nnc3c(=O)[nH]c(C4CCCN(C(=O)c5ccccc5Cl)C4)nc32)c1 (stereo not drawn),-2.56
9,Cc1cc(N/C(=N\S(=O)(=O)c2ccc(F)cc2F)c2ccccc2)no1,0.0702
10,Cc1cccc(N2CCN(C3=NC(=O)C(Cc4ccccc4)S3)CC2)c1 (stereo not drawn),-0.299
11,CC(C)C[C@H](NC(=O)NC(C)C)C(=O)O,0.617
12,CC1CC(C)CN(C(=O)Cn2c(-c3nonc3N)nc3ccccc32)C1 (stereo not drawn),0.882
13,Cc1ccccc1-c1nnc(SCC(=O)Nc2ccc(Cl)cc2)n1N,0.6
14,O=C(CCCCCN1C(=O)CCC1=O)Nc1ncn[nH]1,0.282
15,CCOc1ccc(S(=O)(=O)n2cc(-c3ccccc3)c(N)n2)cc1,0.107
16,O=S(=O)(C=C(c1ccccc1)c1ccccc1)c1ccccc1,-0.199
17,CS(=O)(=O)N(Cc1ccc(F)cc1)Cc1nc2ccccc2c(=O)[nH]1,-0.126
18,CCN(CC)CC(=O)NCc1cc(-c2ccc(OC)cc2)no1,0.153
19,CCCN(CCC)C(=O)CC(c1ccccc1)c1cc(C)ccc1O (stereo not drawn),-0.278
20,Cc1cc(Oc2ccccc2)nc(NCc2ccccc2)n1,-0.922
21,CCn1c(=O)cc(SCC(=O)Nc2ccc(OC)c(OC)c2)c2ccccc21,-0.229
